As a reminder, the % Inhibition is the relative decrease from the control value, in per cent.

The whole screen tested about 150,000 compounds, of which about 540 (0.36%) showed an effect of 50% or more. This is one part of the list.

From ChEMBL document CHEMBL4888484, “Replenishing the malaria drug discovery pipeline: Screening and hit evaluation of the MMV Hit Generation Library 1 (HGL1) against asexual blood stage Plasmodium falciparum ,using a nano luciferase reporter read-out” (2022) come the findings set out here.

The assay has as its system Plasmodium falciparum. As to the kind of experiment: Primary screen in NF54 nanoGlo assay, in single point, at 2uM, 72h; a lower Z score goes with more inhibition. Format: functional, Erythrocyte. Particulars: timepoint 72 hour.
Turning to `C[C@@H](C(=O)NCC1(c2ccccc2)CC1)n1ccnc1`, the “% Inhibition” value is -4% and the Z score was 0.4.
The matching figures for `COCc1csc(Nc2ccc(OC)nc2)n1`: 3% and -0.24.
The matching figures for `CN1CCN(S(=O)(=O)N2CCN(Cc3cccn3C)CC2)CC1`: 7% and -0.7.
Turning to `COc1ccc(/C=C/c2nc(-c3ccc4c(c3)ncn4CCC(=O)N3CCOCC3)no2)cc1`, the “% Inhibition” value was -5% and the Z score is 0.62.
In the case of `CC(CC(=O)N[C@H](C)C(=O)O)c1cccc(C(F)(F)F)c1` (stereo partly specified), the “% Inhibition” value was -21% and the Z score worked out at 2.15.
The matching figures for `CCc1nc(NC(=O)NCc2ncn(C)n2)sc1C`: -7% and 1.33.
The matching figures for `Cc1nc(N2CCC(C(=O)NCCc3cnn(-c4ccccc4)c3)CC2)nc2ccc(C(C)C)cc12`: -2% and 0.32.
For `COC[C@H](C)NS(=O)(=O)c1ccc(F)c(Br)c1`, the “% Inhibition” value is on record as -1% and the Z score amounted to 0.15.
The matching figures for `Cc1ncc(S(C)(=O)=O)c(N(C)Cc2cc(-c3cccs3)n[nH]2)n1`: -24% and 3.68.
For the molecule `CC(C)(C)c1ccc(C(=O)N[C@H]2CCCC[C@@H]2NC(=O)c2ccc(C(C)(C)C)cc2)cc1`, the “% Inhibition” value amounted to 48% and the Z score is on record as -6.19.
The matching figures for `CC1(C)Cc2c(cnn2-c2cccc(F)c2)[C@@H](NCc2cccnc2)C1`: -2% and 0.26.
The matching figures for `N#Cc1cccnc1NCCCc1ccccc1`: 20% and -2.51.
With `CN(C[C@H]1CCCCO1)C(=O)NC(C)(C)c1cccc2ccccc12`, the “% Inhibition” value is reported as -9% and the Z score turned out to be 1.5.
The matching figures for `Cc1nc(-c2oc(C)nc2C)n(-c2ccc3c(c2)OCO3)n1`: -9% and 0.85.
For `Cc1csc(C(=O)NCCc2nc(-c3cccs3)c[nH]2)c1`, the “% Inhibition” value is reported as -2% and the Z score amounted to 0.28.
The matching figures for `Cc1nc(CNC(=O)c2cnc(Cc3c(Cl)cccc3Cl)nc2O)cs1`: -1% and 0.15.
The matching figures for `CNc1nc(C(=O)N2CCNC[C@H]2C(=O)N2CCCC2)cs1`: -5% and 0.86.
The matching figures for `Cc1nnc2n1CCN(c1ccccc1)C2=O`: -11% and 1.36.
Consider `CN(CC(=O)N(C)[C@H]1CCN(CC(F)(F)F)C1=O)c1ccccc1`, for which the “% Inhibition” value is listed as -13% and the Z score was found to be 1.91.
The matching figures for `CC1CCC2(CC1)NC(=O)N(Cc1nnc(-c3ccccc3)o1)C2=O` (stereo unspecified): -2% and 0.16.
The matching figures for `CC(C)Cc1ncc2c(n1)CN(c1ncnc3[nH]cnc13)C2`: 2% and -0.3.
The matching figures for `Cc1nnnn1CCC(=O)NC(C)(C)CC(C)C`: -20% and 2.67.
Turning to `C[C@@H](NCc1cccn1Cc1ccccc1C#N)c1cccc(O)c1`, the “% Inhibition” value is on record as -9% and the Z score is recorded as 0.84.
On to `Cc1nc(N2CCOCC2)ccc1NC(=O)[C@@H](N)C(F)(F)F`, for which the “% Inhibition” value came out at 2% and the Z score is given as -0.25.
Take `C[C@](NC(=O)c1cc2c(s1)CCOC2)(C(=O)O)c1ccc(F)cc1`: the “% Inhibition” value is 5% and the Z score is -0.76.
For `C=CCN1C[C@@H](C(=O)NCc2cccnc2Oc2ccccc2)CC1=O`, the “% Inhibition” value worked out at 8% and the Z score was -1.17.
The matching figures for `CCCN1CCC(N2CCN(c3nc(C)nc(C)c3C)CC2)CC1`: -1% and 0.07.
The matching figures for `C[C@]1(CNc2cc(C(=O)N3CCCCC3)ccn2)CCCO1`: -20% and 1.8.
For `C[C@H](NS(=O)(=O)Cc1ccon1)c1c(F)cccc1Cl`, the “% Inhibition” value is given as 4% and the Z score is reported as -0.61.
For `O=C(Nc1cccc(C2OC(=O)N(Cc3cccc(Cl)c3)C2C(=O)NCCc2ccccn2)c1)c1ccccc1F` (stereo unspecified), the “% Inhibition” value is -7% and the Z score was determined as 0.87.
The matching figures for `COc1ccc(CN2CC(=O)Nc3ccccc32)cc1F`: -5% and 0.88.
As for `O=C(NC1CC1)[C@@H]1CNCCN1C(=O)CCn1cc(Cl)cn1`, the “% Inhibition” value was -10% and the Z score is 1.58.
The matching figures for `CN(C)c1nc(N2CCCCC2)nc2c1CN(C(=O)c1ccc(F)cc1F)CC2`: -16% and 1.78.
The matching figures for `CCc1cnccc1C(=O)NCc1cccc(C(=O)N2CCCC2)c1`: -1% and 0.11.
The matching figures for `CC(C)(CN1CCC[C@H]1c1nc(-c2ccncc2)no1)N1CCOCC1`: -9% and 1.88.
Regarding `Cc1[nH]c2c(C)ccc(C)c2c1CC(=O)NCCc1c[nH]cn1`, the “% Inhibition” value is given as 5% and the Z score is reported as -0.91.
For the molecule `Cc1ccc(C(=O)NCC2(C(=O)O)CCCCC2)o1`, the “% Inhibition” value is recorded as -5% and the Z score amounted to 0.66.
The matching figures for `CC1CCCC(C)N1C(=O)CN1C(=O)CN(c2ccccc2)C1=O` (stereo unspecified): -2% and 0.28.
The matching figures for `CNc1snc(C)c1C(=O)N1CCc2cc(OC)c(OC)cc2C1`: -12% and 1.09.
The matching figures for `CCN1CCN(CC(=O)N2N=C(c3ccc(C)c(C)c3)C[C@H]2c2cccn2C)CC1`: 39% and -1.21.
On to `COc1ccc(CN2CCc3c(c(C(=O)N(C)Cc4cscn4)nn3CC3CC3)C2)cc1`, for which the “% Inhibition” value was -6% and the Z score turned out to be 0.7.
The matching figures for `CC1Oc2ccc(NC(C)c3ncc(-c4ccccc4)o3)cc2NC1=O` (stereo unspecified): -1% and 0.14.
The matching figures for `Cc1ccc([C@H]2CN(C(=O)c3sccc3Cl)C[C@@H]2N(C)C)cc1`: -12% and 1.66.
For the molecule `O=C([C@@H](O)Cc1c(F)cccc1Cl)N1CCCc2occc2C1`, the “% Inhibition” value came to 3% and the Z score is on record as -0.46.
The matching figures for `CCNc1ncc(CN2CCC3(CC2)C[C@H](c2ccccc2)CN(C)C3)cn1`: 2% and -0.36.
Take `C[C@H](NC(=O)c1n[nH]c2ccccc12)C1(S(C)(=O)=O)CC1`: the “% Inhibition” value is -43% and the Z score is 5.
For the molecule `CN1C[C@@H](c2ccccc2)CC2(CCN(Cc3noc(C4CC4)n3)CC2)C1`, the “% Inhibition” value was 6% and the Z score is reported as -1.13.
The matching figures for `CCn1cnnc1CNC(=O)Nc1cc(-c2ccccc2)ns1`: -11% and 1.14.
Take `CC1(C)CN(S(=O)(=O)C2COC2)[C@H]2COC[C@H]21`: the “% Inhibition” value was determined as 16% and the Z score is given as -1.98.
Turning to `C=CC[C@]1(C(=O)O)CCCN(Cc2cnc(NC(C)C)nc2)C1`, the “% Inhibition” value was -6% and the Z score is on record as 1.07.
The matching figures for `CCn1cc(C(=O)N(C[C@H]2COc3ccccc3O2)C(C)C)c(C)n1`: -20% and 2.52.
The matching figures for `Cc1ccc(C(=O)NCc2ccc(-c3nc4ccccc4s3)cc2)cc1`: 38% and -5.09.
The matching figures for `CCOC(=O)c1cc(S(=O)(=O)NCCNS(=O)(=O)CC)c(F)cc1Cl`: -5% and 0.6.
As to `O=C1NCCCOc2cccc(c2)[C@H]2c3ccc(cc3CCN2C(=O)CCN2CCOCC2)Oc2ccc(O)c1c2`, the “% Inhibition” value amounted to 39% and the Z score is -8.79.
Consider `CCn1cnc2c(N3CC(CN4CCOCC4)C3)ncnc21`, for which the “% Inhibition” value was -15% and the Z score was 2.17.
On to `CCCN1C(=O)N(c2cc(C)ccn2)C(=O)[C@@H]1CC`, for which the “% Inhibition” value is -8% and the Z score is recorded as 0.74.
The matching figures for `O=C(Cc1c[nH]c2ccccc12)NC1(C(=O)O)CCCC1`: -8% and 1.19.
The matching figures for `O=C1O[C@H]2CN(c3ncccc3C(F)(F)F)C[C@H]2N1CCN1CCCCC1`: -6% and 0.73.
For the molecule `CCc1nccn1CCC(=O)N1C[C@@H]2NC(=O)CN(C3CC3)Cc3cccc(c3)Oc3cccc(c3)CO[C@H]2C1`, the “% Inhibition” value was -6% and the Z score came out at 1.23.
As for `CC(C)(CNC(=O)[C@@H]1CCCN1Cc1ccccn1)C1CCOCC1`, the “% Inhibition” value is on record as -4% and the Z score is 0.41.
The matching figures for `COc1ccc(-c2nnc(-c3cccnc3)[nH]2)cc1`: -3% and 0.3.
The matching figures for `CCC(=O)Nc1c(C)noc1/C=C\c1ccc(S(=O)(=O)NCCC(C)C)cc1`: -11% and 1.48.
The matching figures for `Cc1ccc(N)c(C(=O)OCc2nnnn2-c2c(C)cccc2C)c1`: -5% and 0.54.
Take `Cc1cc(C(=O)Nc2ccc3c(c2F)CCNC3=O)on1`: the “% Inhibition” value is -7% and the Z score was 0.7.
For the molecule `COc1cccc(CN2CC3(CCN(C(=O)N4CCOCC4)CC3)CC2=O)c1`, the “% Inhibition” value was 1% and the Z score is -0.13.
The matching figures for `Cc1[nH]c2c(CN3CCC(c4ncon4)CC3)cccc2c1C`: -7% and 1.16.
Regarding `CC1CCCCN1C(=O)c1ccc(NC(=O)C2CC2c2ccco2)cc1Cl` (stereo unspecified), the “% Inhibition” value is -15% and the Z score is given as 2.14.
In the case of `COc1ccc(NC(=O)c2ccc3nn(CC(=O)Nc4cccc(C)c4C)c(=O)n3c2)cc1`, the “% Inhibition” value is -20% and the Z score amounted to 3.21.
The matching figures for `CN(C[C@H]1CCOC1)C(=O)NCCOCc1ccccc1`: -4% and 0.59.
Regarding `NC(=O)CN1CCc2c1cccc2C(F)(F)F`, the “% Inhibition” value is reported as -7% and the Z score was 0.99.
For the molecule `Cc1cccc(-n2nc3c(c2NC(=O)[C@H]2CC(=O)N(c4ccccc4)C2)CS(=O)(=O)C3)c1`, the “% Inhibition” value is -14% and the Z score was 2.74.
On to `COCC(C)C(=O)NCC1CN(S(=O)(=O)c2ccccc2)C2CCN1C2` (stereo unspecified), for which the “% Inhibition” value was -5% and the Z score is recorded as 0.97.
With `CC1(C)CCN(C(=O)c2nc3cccnc3s2)c2ccccc21`, the “% Inhibition” value is on record as -8% and the Z score is 0.85.
The matching figures for `Cc1nc(O)nc(C)c1CCC(=O)NC(c1ccccn1)[C@H]1C[C@H](O)C1` (stereo partly specified): -14% and 1.27.
The matching figures for `CC[C@H](NCC1CCN(C(C)=O)CC1)c1ccccc1F`: 5% and -0.62.
The matching figures for `CCc1cc(C(=O)N[C@@H]2COCC[C@@H]2OCc2c(C)noc2C)no1`: -4% and 0.86.
On to `Cc1ccc(O[C@H]2CCN(C(=O)CCn3cnc4ccccc4c3=O)C2)nn1`, for which the “% Inhibition” value was -9% and the Z score is given as 1.02.
As for `CCN1C(=O)C2(CCN(Cc3ccccc3Cl)CC2)C[C@H]1C(=O)NC1CCCC1`, the “% Inhibition” value was determined as 1% and the Z score is -0.09.
For `COCC(=O)N(Cc1cccc(F)c1)c1ccc(CC(=O)NCc2ccccn2)cc1`, the “% Inhibition” value is listed as -19% and the Z score came out at 1.81.
The matching figures for `O=C(NCC[C@H](O)c1cccc(Cl)c1)C1CCCC1`: -9% and 1.79.
The matching figures for `COc1nc(NCC2CCN(CC(C)C)CC2)ncc1F`: -2% and 0.24.
In the case of `Cn1c(N)c(NC(=O)c2cccs2)c(=O)[nH]c1=O`, the “% Inhibition” value was 14% and the Z score is listed as -1.78.
The matching figures for `CC(C)c1cnc(-c2ccc(NC(=O)NCc3ccon3)cc2)o1`: 24% and -2.72.
